The other results are listed elsewhere or left out.

This test deals with T1, MBP-FoxP1dN (Mus musculus, UniProt P58462 326-579).
T1 sequence: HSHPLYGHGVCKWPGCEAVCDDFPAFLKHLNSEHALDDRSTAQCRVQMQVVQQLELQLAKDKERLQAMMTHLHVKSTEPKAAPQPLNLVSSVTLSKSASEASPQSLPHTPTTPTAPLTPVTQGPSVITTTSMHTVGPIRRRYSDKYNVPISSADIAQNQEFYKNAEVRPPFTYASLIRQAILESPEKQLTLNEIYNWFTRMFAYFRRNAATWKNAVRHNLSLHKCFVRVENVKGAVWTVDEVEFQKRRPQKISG
The test is described as follows: PD-seq (MBP pull-down with sequencing); 20 mM Tris-HCl pH 7.5, 100 mM NaCl, 1.5 mM MgCl2, 0.4 uM protein, 0.1 uM dsDNA library, 30 min, room temperature, amylose pull-down; high values mean tight binding. Particulars: protein: recombinant; tags: His6-MBP; chain copies: 2; dsDNA, one strand shown. Put shortly: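 A degenerate double-stranded DNA library, filled in with Klenow, was added at 0.1 µM to 0.4 µM His6-MBP-tagged mouse FoxP3 or FoxP1 fragment lacking the N-terminus, expressed in E. coli. Incubation lasted 30 min at room temperature in Tris pH 7.5 buffer with NaCl and MgCl2, after which complexes were collected on amylose resin, washed three times, digested with proteinase K to free the DNA, barcoded by PCR and sequenced by Illumina. Binding is the pooled-replicate reads-per-million enrichment of pull-down over input.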
As for “GATGATTGTTCTCCCAGCTGATGAATTATGTATTTCGAGTAAACAAATTTTCCTAATCTTTCTGTTCAAGCGCCATCTAC”, the binding signal is 1.32 RPM ratio (pull-down/input).

In the case of “GATGATTGTTCTCCCAGCTGATGAATTTGGCGATTCGAGTAAACAAATTTTCCTAATCTTTCTGTTCAAGCGCCATCTAC”, the binding signal was 0.91 RPM ratio (pull-down/input).

Turning to “GATGATTGTTCTCCCAGCTGATGAATTATATTTTTCGAGTAAACAAATTTTCCTAATCTTTCTGTTCAAGCGCCATCTAC”, the binding signal was 1.61 RPM ratio (pull-down/input).

Take “GATGATTGTTCTCCCAGCTGATGAATTCAGTAAGTCGAGTAAACAAATTTTCCTAATCTTTCTGTTCAAGCGCCATCTAC”: the binding signal was 0.921 RPM ratio (pull-down/input).

In the case of “GATGATTGTTCTCCCAGCTGATGAATTGCCGGAATCGAGTAAACAAATTTTCCTAATCTTTCTGTTCAAGCGCCATCTAC”, the binding signal is 0.95 RPM ratio (pull-down/input).

On to “GATGATTGTTCTCCCAGCTGATGAATTTATCGCATCGAGTAAACAAATTTTCCTAATCTTTCTGTTCAAGCGCCATCTAC”, for which the binding signal was 1.46 RPM ratio (pull-down/input).

Turning to “GATGATTGTTCTCCCAGCTGATGAATTCCCGGACTCGAGTAAACAAATTTTCCTAATCTTTCTGTTCAAGCGCCATCTAC”, the binding signal was 0.762 RPM ratio (pull-down/input).

“GATGATTGTTCTCCCAGCTGATGAATTGCCAGCCTCGAGTAAACAAATTTTCCTAATCTTTCTGTTCAAGCGCCATCTAC”: the binding signal was 0.923 RPM ratio (pull-down/input).

Consider “GATGATTGTTCTCCCAGCTGATGAATTACGTTTATCGAGTAAACAAATTTTCCTAATCTTTCTGTTCAAGCGCCATCTAC”, for which the binding signal was 1.43 RPM ratio (pull-down/input).

Take “GATGATTGTTCTCCCAGCTGATGAATTTTGCGGGTCGAGTAAACAAATTTTCCTAATCTTTCTGTTCAAGCGCCATCTAC”: the binding signal was 0.843 RPM ratio (pull-down/input).

As for “GATGATTGTTCTCCCAGCTGATGAATTGCACGTATCGAGTAAACAAATTTTCCTAATCTTTCTGTTCAAGCGCCATCTAC”, the binding signal was 1.19 RPM ratio (pull-down/input).

With “GATGATTGTTCTCCCAGCTGATGAATTTTCGTTGTCGAGTAAACAAATTTTCCTAATCTTTCTGTTCAAGCGCCATCTAC”, the binding signal is 1.34 RPM ratio (pull-down/input).

On to “GATGATTGTTCTCCCAGCTGATGAATTGATAAAGTCGAGTAAACAAATTTTCCTAATCTTTCTGTTCAAGCGCCATCTAC”, for which the binding signal is 1.04 RPM ratio (pull-down/input).

With “GATGATTGTTCTCCCAGCTGATGAATTCCTCCCCTCGAGTAAACAAATTTTCCTAATCTTTCTGTTCAAGCGCCATCTAC”, the binding signal is 0.804 RPM ratio (pull-down/input).

As to “GATGATTGTTCTCCCAGCTGATGAATTCAGGTTGTCGAGTAAACAAATTTTCCTAATCTTTCTGTTCAAGCGCCATCTAC”, the binding signal was 1 RPM ratio (pull-down/input).

Regarding “GATGATTGTTCTCCCAGCTGATGAATTCTCTCTTTCGAGTAAACAAATTTTCCTAATCTTTCTGTTCAAGCGCCATCTAC”, the binding signal was 0.917 RPM ratio (pull-down/input).

For “GATGATTGTTCTCCCAGCTGATGAATTTCCATGATCGAGTAAACAAATTTTCCTAATCTTTCTGTTCAAGCGCCATCTAC”, the binding signal is 0.854 RPM ratio (pull-down/input).

For “GATGATTGTTCTCCCAGCTGATGAATTGCAGATATCGAGTAAACAAATTTTCCTAATCTTTCTGTTCAAGCGCCATCTAC”, the binding signal is 1.23 RPM ratio (pull-down/input).

As for “GATGATTGTTCTCCCAGCTGATGAATTGGCAGGGTCGAGTAAACAAATTTTCCTAATCTTTCTGTTCAAGCGCCATCTAC”, the binding signal is 0.733 RPM ratio (pull-down/input).

“GATGATTGTTCTCCCAGCTGATGAATTTAAAACTTCGAGTAAACAAATTTTCCTAATCTTTCTGTTCAAGCGCCATCTAC”: the binding signal is 0.825 RPM ratio (pull-down/input).

As to “GATGATTGTTCTCCCAGCTGATGAATTTGTGCGCTCGAGTAAACAAATTTTCCTAATCTTTCTGTTCAAGCGCCATCTAC”, the binding signal was 1.04 RPM ratio (pull-down/input).

For “GATGATTGTTCTCCCAGCTGATGAATTAACACACTCGAGTAAACAAATTTTCCTAATCTTTCTGTTCAAGCGCCATCTAC”, the binding signal is 1.2 RPM ratio (pull-down/input).

Take “GATGATTGTTCTCCCAGCTGATGAATTCAAAACCTCGAGTAAACAAATTTTCCTAATCTTTCTGTTCAAGCGCCATCTAC”: the binding signal is 0.864 RPM ratio (pull-down/input).

Consider “GATGATTGTTCTCCCAGCTGATGAATTTCTCGGCTCGAGTAAACAAATTTTCCTAATCTTTCTGTTCAAGCGCCATCTAC”, for which the binding signal is 0.734 RPM ratio (pull-down/input).

As for “GATGATTGTTCTCCCAGCTGATGAATTTGGGCAATCGAGTAAACAAATTTTCCTAATCTTTCTGTTCAAGCGCCATCTAC”, the binding signal was 1.02 RPM ratio (pull-down/input).

For the sequence “GATGATTGTTCTCCCAGCTGATGAATTAACAGCATCGAGTAAACAAATTTTCCTAATCTTTCTGTTCAAGCGCCATCTAC”, the binding signal is 1.26 RPM ratio (pull-down/input).

Consider “GATGATTGTTCTCCCAGCTGATGAATTACGATGGTCGAGTAAACAAATTTTCCTAATCTTTCTGTTCAAGCGCCATCTAC”, for which the binding signal is 0.966 RPM ratio (pull-down/input).

On to “GATGATTGTTCTCCCAGCTGATGAATTCATTGGGTCGAGTAAACAAATTTTCCTAATCTTTCTGTTCAAGCGCCATCTAC”, for which the binding signal was 0.77 RPM ratio (pull-down/input).

“GATGATTGTTCTCCCAGCTGATGAATTAGTGACTTCGAGTAAACAAATTTTCCTAATCTTTCTGTTCAAGCGCCATCTAC”: the binding signal was 0.962 RPM ratio (pull-down/input).

Consider “GATGATTGTTCTCCCAGCTGATGAATTTCAGCCCTCGAGTAAACAAATTTTCCTAATCTTTCTGTTCAAGCGCCATCTAC”, for which the binding signal is 0.731 RPM ratio (pull-down/input).

Take “GATGATTGTTCTCCCAGCTGATGAATTACGCCCTTCGAGTAAACAAATTTTCCTAATCTTTCTGTTCAAGCGCCATCTAC”: the binding signal was 0.952 RPM ratio (pull-down/input).

Source of the values: article PMC12820563, “FoxP3 forms a head-to-head dimer in vivo and stabilizes its multimerization on adjacent microsatellites”.
